Some of the results follow.

The assay has as its target T1, MBP-FoxP1dN (Mus musculus, UniProt P58462 326-579).
T1 sequence: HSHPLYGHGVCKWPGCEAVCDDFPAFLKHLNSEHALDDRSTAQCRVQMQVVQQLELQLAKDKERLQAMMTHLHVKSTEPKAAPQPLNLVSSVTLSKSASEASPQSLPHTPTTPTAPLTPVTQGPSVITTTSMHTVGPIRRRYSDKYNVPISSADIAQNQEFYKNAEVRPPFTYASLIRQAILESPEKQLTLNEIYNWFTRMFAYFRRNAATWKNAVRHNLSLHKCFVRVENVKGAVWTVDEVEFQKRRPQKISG
Nature of the assay: PD-seq (MBP pull-down with sequencing); 20 mM Tris-HCl pH 7.5, 100 mM NaCl, 1.5 mM MgCl2, 0.4 uM protein, 0.1 uM dsDNA library, 30 min, room temperature, amylose pull-down; high values mean tight binding. The conditions noted are these: protein: recombinant; tags: His6-MBP; chain copies: 2; dsDNA, one strand shown. A digest of the protocol: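 A fragment of mouse FoxP3 or FoxP1 without its N-terminus, carrying a His6-MBP tag and produced in E. coli, was combined at 0.4 µM with a 0.1 µM degenerate double-stranded DNA library filled in with Klenow. The mixture sat for 30 min at room temperature in Tris pH 7.5 buffer containing NaCl and MgCl2. Protein–DNA complexes were captured on amylose resin, washed three times, and the DNA was freed with proteinase K, barcoded by PCR and sequenced on Illumina. Binding is expressed as reads-per-million enrichment of pull-down over input, with replicates pooled.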
Turning to “GATGATTGTTCTCCCAGCTGATGAATTTAGGCGATCGAGTAAACAAATTTTCCTAATCTTTCTGTTCAAGCGCCATCTAC”, the binding signal is 0.898 RPM ratio (pull-down/input).
Under “GATGATTGTTCTCCCAGCTGATGAATTGTACTGCTCGAGTAAACAAATTTTCCTAATCTTTCTGTTCAAGCGCCATCTAC” stands 0.956 RPM ratio (pull-down/input); under “GATGATTGTTCTCCCAGCTGATGAATTCGATCATTCGAGTAAACAAATTTTCCTAATCTTTCTGTTCAAGCGCCATCTAC”, 0.949 RPM ratio (pull-down/input); under “GATGATTGTTCTCCCAGCTGATGAATTAGATTTCTCGAGTAAACAAATTTTCCTAATCTTTCTGTTCAAGCGCCATCTAC”, 0.85 RPM ratio (pull-down/input).
Next, “GATGATTGTTCTCCCAGCTGATGAATTCTCAGGTTCGAGTAAACAAATTTTCCTAATCTTTCTGTTCAAGCGCCATCTAC”: 0.765 RPM ratio (pull-down/input); “GATGATTGTTCTCCCAGCTGATGAATTCTTAGCATCGAGTAAACAAATTTTCCTAATCTTTCTGTTCAAGCGCCATCTAC”: 1.22 RPM ratio (pull-down/input); “GATGATTGTTCTCCCAGCTGATGAATTTACGAATTCGAGTAAACAAATTTTCCTAATCTTTCTGTTCAAGCGCCATCTAC”: 1.33 RPM ratio (pull-down/input).
In the case of “GATGATTGTTCTCCCAGCTGATGAATTGGTAAGCTCGAGTAAACAAATTTTCCTAATCTTTCTGTTCAAGCGCCATCTAC”, the binding signal is 0.946 RPM ratio (pull-down/input).
For the sequence “GATGATTGTTCTCCCAGCTGATGAATTAGTACGCTCGAGTAAACAAATTTTCCTAATCTTTCTGTTCAAGCGCCATCTAC”, the binding signal was 1.02 RPM ratio (pull-down/input).
Next, “GATGATTGTTCTCCCAGCTGATGAATTCGCCCTTTCGAGTAAACAAATTTTCCTAATCTTTCTGTTCAAGCGCCATCTAC”: 0.83 RPM ratio (pull-down/input); “GATGATTGTTCTCCCAGCTGATGAATTTGTACAATCGAGTAAACAAATTTTCCTAATCTTTCTGTTCAAGCGCCATCTAC”: 1.46 RPM ratio (pull-down/input); “GATGATTGTTCTCCCAGCTGATGAATTCGTAAACTCGAGTAAACAAATTTTCCTAATCTTTCTGTTCAAGCGCCATCTAC”: 1.27 RPM ratio (pull-down/input).
Under “GATGATTGTTCTCCCAGCTGATGAATTCCCAGAGTCGAGTAAACAAATTTTCCTAATCTTTCTGTTCAAGCGCCATCTAC” stands 0.738 RPM ratio (pull-down/input).
Next, “GATGATTGTTCTCCCAGCTGATGAATTAATACACTCGAGTAAACAAATTTTCCTAATCTTTCTGTTCAAGCGCCATCTAC”: 1.26 RPM ratio (pull-down/input); “GATGATTGTTCTCCCAGCTGATGAATTCACACTTTCGAGTAAACAAATTTTCCTAATCTTTCTGTTCAAGCGCCATCTAC”: 0.928 RPM ratio (pull-down/input); “GATGATTGTTCTCCCAGCTGATGAATTGCGGGATTCGAGTAAACAAATTTTCCTAATCTTTCTGTTCAAGCGCCATCTAC”: 1.03 RPM ratio (pull-down/input).
Regarding “GATGATTGTTCTCCCAGCTGATGAATTTGTCGCATCGAGTAAACAAATTTTCCTAATCTTTCTGTTCAAGCGCCATCTAC”, the binding signal is 1.28 RPM ratio (pull-down/input).
“GATGATTGTTCTCCCAGCTGATGAATTCAGTCTCTCGAGTAAACAAATTTTCCTAATCTTTCTGTTCAAGCGCCATCTAC”: the binding signal is 0.769 RPM ratio (pull-down/input).
Under “GATGATTGTTCTCCCAGCTGATGAATTATTAGTTTCGAGTAAACAAATTTTCCTAATCTTTCTGTTCAAGCGCCATCTAC” stands 1.33 RPM ratio (pull-down/input).
Next, “GATGATTGTTCTCCCAGCTGATGAATTCCCGTGCTCGAGTAAACAAATTTTCCTAATCTTTCTGTTCAAGCGCCATCTAC”: 0.768 RPM ratio (pull-down/input).
Take “GATGATTGTTCTCCCAGCTGATGAATTCGACCCCTCGAGTAAACAAATTTTCCTAATCTTTCTGTTCAAGCGCCATCTAC”: the binding signal was 0.751 RPM ratio (pull-down/input).
Under “GATGATTGTTCTCCCAGCTGATGAATTTTTGCAGTCGAGTAAACAAATTTTCCTAATCTTTCTGTTCAAGCGCCATCTAC” stands 1.02 RPM ratio (pull-down/input).
With “GATGATTGTTCTCCCAGCTGATGAATTTGTATCGTCGAGTAAACAAATTTTCCTAATCTTTCTGTTCAAGCGCCATCTAC”, the binding signal is 1.22 RPM ratio (pull-down/input).
Under “GATGATTGTTCTCCCAGCTGATGAATTGACGCAATCGAGTAAACAAATTTTCCTAATCTTTCTGTTCAAGCGCCATCTAC” stands 1.58 RPM ratio (pull-down/input); under “GATGATTGTTCTCCCAGCTGATGAATTTAAAGCATCGAGTAAACAAATTTTCCTAATCTTTCTGTTCAAGCGCCATCTAC”, 1.1 RPM ratio (pull-down/input); under “GATGATTGTTCTCCCAGCTGATGAATTCGTCACCTCGAGTAAACAAATTTTCCTAATCTTTCTGTTCAAGCGCCATCTAC”, 0.867 RPM ratio (pull-down/input).
Next, “GATGATTGTTCTCCCAGCTGATGAATTCCCATGATCGAGTAAACAAATTTTCCTAATCTTTCTGTTCAAGCGCCATCTAC”: 0.884 RPM ratio (pull-down/input); “GATGATTGTTCTCCCAGCTGATGAATTGCGAAGATCGAGTAAACAAATTTTCCTAATCTTTCTGTTCAAGCGCCATCTAC”: 0.983 RPM ratio (pull-down/input).
Next, “GATGATTGTTCTCCCAGCTGATGAATTTGTGGCTTCGAGTAAACAAATTTTCCTAATCTTTCTGTTCAAGCGCCATCTAC”: 1.07 RPM ratio (pull-down/input); “GATGATTGTTCTCCCAGCTGATGAATTGACAGGGTCGAGTAAACAAATTTTCCTAATCTTTCTGTTCAAGCGCCATCTAC”: 1.05 RPM ratio (pull-down/input).
As to “GATGATTGTTCTCCCAGCTGATGAATTTCCCTAATCGAGTAAACAAATTTTCCTAATCTTTCTGTTCAAGCGCCATCTAC”, the binding signal is 0.957 RPM ratio (pull-down/input).
In the case of “GATGATTGTTCTCCCAGCTGATGAATTTTCGACGTCGAGTAAACAAATTTTCCTAATCTTTCTGTTCAAGCGCCATCTAC”, the binding signal is 0.942 RPM ratio (pull-down/input).
Next, “GATGATTGTTCTCCCAGCTGATGAATTAGGCTCATCGAGTAAACAAATTTTCCTAATCTTTCTGTTCAAGCGCCATCTAC”: 0.944 RPM ratio (pull-down/input).
Under “GATGATTGTTCTCCCAGCTGATGAATTGCCACGATCGAGTAAACAAATTTTCCTAATCTTTCTGTTCAAGCGCCATCTAC” stands 0.945 RPM ratio (pull-down/input); under “GATGATTGTTCTCCCAGCTGATGAATTGTGACTTTCGAGTAAACAAATTTTCCTAATCTTTCTGTTCAAGCGCCATCTAC”, 1.19 RPM ratio (pull-down/input); under “GATGATTGTTCTCCCAGCTGATGAATTTTCAGGGTCGAGTAAACAAATTTTCCTAATCTTTCTGTTCAAGCGCCATCTAC”, 0.809 RPM ratio (pull-down/input).
With “GATGATTGTTCTCCCAGCTGATGAATTCTTCTCGTCGAGTAAACAAATTTTCCTAATCTTTCTGTTCAAGCGCCATCTAC”, the binding signal was 0.886 RPM ratio (pull-down/input).
Next, “GATGATTGTTCTCCCAGCTGATGAATTTCATTCCTCGAGTAAACAAATTTTCCTAATCTTTCTGTTCAAGCGCCATCTAC”: 0.839 RPM ratio (pull-down/input); “GATGATTGTTCTCCCAGCTGATGAATTCTCTAAGTCGAGTAAACAAATTTTCCTAATCTTTCTGTTCAAGCGCCATCTAC”: 0.864 RPM ratio (pull-down/input).
Next, “GATGATTGTTCTCCCAGCTGATGAATTCGAGCCATCGAGTAAACAAATTTTCCTAATCTTTCTGTTCAAGCGCCATCTAC”: 0.845 RPM ratio (pull-down/input).

Values taken from paper PMC12820563, “FoxP3 forms a head-to-head dimer in vivo and stabilizes its multimerization on adjacent microsatellites”.
